{"source": "paper PMC4336329", "about": "(PLoS ONE, 2015)", "note": "The whole screen tested about 310,000 compounds, of which about 14,000 (4.5%) showed an effect of 50% or more. The effect is printed as a negative number. This is one part of the list.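 Also: peak tail current of the secondary pulse compared with the same well before compound.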"}
{"target": "human ether-à-go-go-related gene (hERG) potassium channel (human, UniProt Q12809)", "sequence (Q12809 whole entry, looked up)": "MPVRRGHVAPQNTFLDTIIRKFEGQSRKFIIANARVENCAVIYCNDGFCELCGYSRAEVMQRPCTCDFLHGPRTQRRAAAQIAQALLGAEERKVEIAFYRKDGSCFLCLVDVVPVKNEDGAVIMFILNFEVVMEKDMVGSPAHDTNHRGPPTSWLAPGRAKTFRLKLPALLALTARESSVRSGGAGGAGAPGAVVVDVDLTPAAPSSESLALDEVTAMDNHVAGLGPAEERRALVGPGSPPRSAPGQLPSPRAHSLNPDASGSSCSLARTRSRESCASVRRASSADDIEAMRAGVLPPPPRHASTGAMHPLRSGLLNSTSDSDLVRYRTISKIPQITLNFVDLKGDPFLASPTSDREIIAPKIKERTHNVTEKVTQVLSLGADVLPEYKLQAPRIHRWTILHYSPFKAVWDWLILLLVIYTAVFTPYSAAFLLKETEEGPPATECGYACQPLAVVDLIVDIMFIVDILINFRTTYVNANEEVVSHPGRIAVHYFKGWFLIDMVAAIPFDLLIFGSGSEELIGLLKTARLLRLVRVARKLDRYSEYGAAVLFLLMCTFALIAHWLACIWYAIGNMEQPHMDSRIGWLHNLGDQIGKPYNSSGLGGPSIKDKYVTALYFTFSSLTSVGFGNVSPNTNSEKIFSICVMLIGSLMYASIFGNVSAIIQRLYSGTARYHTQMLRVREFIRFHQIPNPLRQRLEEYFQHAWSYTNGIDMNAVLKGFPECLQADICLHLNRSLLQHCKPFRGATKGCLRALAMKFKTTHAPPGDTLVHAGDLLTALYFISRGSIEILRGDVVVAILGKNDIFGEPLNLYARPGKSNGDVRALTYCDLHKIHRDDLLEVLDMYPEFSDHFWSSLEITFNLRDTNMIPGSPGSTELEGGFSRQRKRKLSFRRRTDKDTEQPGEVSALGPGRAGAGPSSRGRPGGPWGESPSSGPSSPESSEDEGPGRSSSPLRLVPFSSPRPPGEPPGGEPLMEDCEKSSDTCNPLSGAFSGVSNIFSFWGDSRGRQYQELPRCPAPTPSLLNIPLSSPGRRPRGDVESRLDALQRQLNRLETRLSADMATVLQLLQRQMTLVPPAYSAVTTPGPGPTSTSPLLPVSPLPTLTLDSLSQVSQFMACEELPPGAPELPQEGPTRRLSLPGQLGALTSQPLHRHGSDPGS", "assay": "primary screen, population patch clamp on CHO cells stably expressing hERG", "units": {"hERG current change (%, negative = inhibition) at 10uM": "%"}}
{"molecule": "C[C@H](OC(=O)N1CCN(C(c2ccccc2)c2ccccc2)CC1)[C@@H]1O[C@@]2(C)CCC[C@H]1O2", "hERG current change (%, negative = inhibition) at 10uM": -0.658}
{"molecule": "COc1ccc(N2C(=O)c3ccccc3NC2c2ccc(OC)c(COc3ccccn3)c2)cc1", "note": "(centres unmarked)", "hERG current change (%, negative = inhibition) at 10uM": -16.6}
{"molecule": "COC(=O)c1ccc(/C=N/OCC(=O)NC2CCCCCCC2)cc1", "hERG current change (%, negative = inhibition) at 10uM": -2.92}
{"molecule": "Cc1cc(C)cc(N(CC(=O)Nc2c(C)n(C)n(-c3ccccc3)c2=O)S(C)(=O)=O)c1", "hERG current change (%, negative = inhibition) at 10uM": 2.85}
{"molecule": "CC1CN(S(=O)(=O)c2ccc(C(=O)Nc3ccc(S(=O)(=O)Nc4ncccn4)cc3)cc2)CC(C)O1", "note": "(centres unmarked)", "hERG current change (%, negative = inhibition) at 10uM": 9.93}
{"molecule": "CN(C)c1cccc(C(=O)OC(C(=O)Nc2ccc([N+](=O)[O-])cc2Br)c2ccccc2)c1", "note": "(centres unmarked)", "hERG current change (%, negative = inhibition) at 10uM": -10.1}
{"molecule": "Cc1nn(C)cc1CNC(=O)c1cc2n(n1)C(C(F)(F)F)CC(c1cccs1)N2", "note": "(centres unmarked)", "hERG current change (%, negative = inhibition) at 10uM": -0.608}
{"molecule": "CC(NC(=O)/C=C/c1ccco1)c1nc2ccccc2n1Cc1ccccc1F", "note": "(centres unmarked)", "hERG current change (%, negative = inhibition) at 10uM": 0.704}
{"molecule": "CN(Cc1ccc(Cl)cc1)C(=O)c1cc(S(=O)(=O)N2CCOCC2)ccc1N1CCCC1", "hERG current change (%, negative = inhibition) at 10uM": -72.8}
{"molecule": "CCOC(=O)c1c(C)c(C#N)c2c3ccccc3ccn12", "hERG current change (%, negative = inhibition) at 10uM": 9.73}
{"molecule": "CN1C2CCC1CC(NC(=O)c1cccc(C(F)(F)F)c1)C2", "note": "(centres unmarked)", "hERG current change (%, negative = inhibition) at 10uM": 9.37}
{"molecule": "O=C(Cc1ccc([N+](=O)[O-])cc1)NC1CCCCCC1", "hERG current change (%, negative = inhibition) at 10uM": 7.55}
{"molecule": "CCOC(=O)[C@@H]1[C@H]2COc3ccccc3[C@@H]2N2C(=O)N(c3ccccc3)C(=O)[C@@]12C", "hERG current change (%, negative = inhibition) at 10uM": 11.4}
{"molecule": "CC(=O)Oc1ccccc1C(=O)OCCN=C1NS(=O)(=O)c2ccccc21", "hERG current change (%, negative = inhibition) at 10uM": 19.3}
{"molecule": "COc1ccccc1NC(=O)CN(C)S(=O)(=O)c1ccc(F)cc1", "hERG current change (%, negative = inhibition) at 10uM": -8.56}
{"molecule": "COc1ccc(/C(N)=N/OC(=O)c2ccc3c(c2)OCO3)cc1", "hERG current change (%, negative = inhibition) at 10uM": 14.6}
{"molecule": "Cc1cc(C)nc(N/N=C/c2cc3c(cc2[N+](=O)[O-])OCO3)n1", "hERG current change (%, negative = inhibition) at 10uM": 24}
{"molecule": "CC(C)N(C(=O)CSc1nc2ccccc2c(=O)[nH]1)C(C)C", "hERG current change (%, negative = inhibition) at 10uM": 6.12}
{"molecule": "O=C(c1ccc(Cl)cc1Cl)N1CCC(c2nc3c(nnn3Cc3ccco3)c(=O)[nH]2)CC1", "hERG current change (%, negative = inhibition) at 10uM": -69}
{"molecule": "O=S(=O)(c1ccccc1F)N1CCN(C(=S)NCc2ccccc2)CC1", "hERG current change (%, negative = inhibition) at 10uM": -4.25}
{"molecule": "CCCn1c(N)c(N2CCCCC2)c(=O)n(CC(=O)Nc2ccccc2C)c1=O", "hERG current change (%, negative = inhibition) at 10uM": 14.6}
{"molecule": "Cn1c(SCC(=O)Nc2ccc3c(c2)OCCO3)nnc1C1CC1", "hERG current change (%, negative = inhibition) at 10uM": 18.5}
{"molecule": "NC(=O)C1CCN(CC(O)CSc2ccccc2)CC1", "note": "(centres unmarked)", "hERG current change (%, negative = inhibition) at 10uM": -0.00192}
{"molecule": "COC(=O)C1=C(c2ccc(C(C)=O)cc2)C[C@@H]2CC[C@H]1N2C(=O)NCc1ccc2c(c1)OCO2", "hERG current change (%, negative = inhibition) at 10uM": -37.3}
{"molecule": "CCc1cccc(NC(=O)C2CCCC2)c1", "hERG current change (%, negative = inhibition) at 10uM": 22.7}
{"molecule": "O=C(Cn1cnc2c(nnn2-c2ccccc2)c1=O)N1CCC(Cc2ccccc2)CC1", "hERG current change (%, negative = inhibition) at 10uM": -47.6}
{"molecule": "O=C(NNC(=O)c1cc(Br)c(Br)s1)c1csc(N2CCOCC2)n1", "hERG current change (%, negative = inhibition) at 10uM": 23.9}
{"molecule": "COc1ccc(N2CCN(CCNC(=O)c3ccc4c(c3)[nH]c(=S)n3c5ccccc5nc43)CC2)cc1", "hERG current change (%, negative = inhibition) at 10uM": 17}
{"molecule": "CCN(CC)C(=O)COc1ccc(N(C)S(=O)(=O)c2ccc(NC(C)=O)cc2)cc1", "hERG current change (%, negative = inhibition) at 10uM": -7.5}
{"molecule": "CSc1nc(N2CCOCC2)nc2ccc(C)cc12", "hERG current change (%, negative = inhibition) at 10uM": 2.43}
{"molecule": "CN1C(C(=O)NCc2cccc(C(F)(F)F)c2)CC2Cn3c(nc4ccccc43)C21", "note": "(centres unmarked)", "hERG current change (%, negative = inhibition) at 10uM": -47.4}
{"molecule": "O=C(COc1ccccc1)N/N=C/c1cc2c(cc1[N+](=O)[O-])OCO2", "hERG current change (%, negative = inhibition) at 10uM": -21.3}
{"molecule": "Cc1ccc(CNC(=O)C2CCC(CNc3c(N4CCC(C)CC4)c(=O)c3=O)CC2)cc1", "note": "(centres unmarked)", "hERG current change (%, negative = inhibition) at 10uM": 1.97}
{"molecule": "O=C(CN1CCN(CC(=O)c2ccc(F)cc2)CC1)Nc1ccccc1Cl", "hERG current change (%, negative = inhibition) at 10uM": -68.9}
{"molecule": "O=C(O)/C=C\\C(=O)NCc1ccccc1", "hERG current change (%, negative = inhibition) at 10uM": 15.4}
{"molecule": "COC(=O)c1cc(C)sc1NC(=O)C1CC=CCC1C(=O)O", "note": "(centres unmarked)", "hERG current change (%, negative = inhibition) at 10uM": -4.51}
{"molecule": "Cc1ccc(C2=NN3C(=O)c4ccccc4C3C2)cc1", "note": "(centres unmarked)", "hERG current change (%, negative = inhibition) at 10uM": -22.4}
{"molecule": "CCOCCc1nnc(NC(=O)CS(=O)(=O)c2ccc(C)cc2)s1", "hERG current change (%, negative = inhibition) at 10uM": -21.5}
{"molecule": "CCOP(=O)(OCC)C(NC(=O)c1ccc(OC)cc1)c1ccccc1", "note": "(centres unmarked)", "hERG current change (%, negative = inhibition) at 10uM": 14.2}
{"molecule": "CCC(=O)Oc1ccc(NC(=O)c2ccco2)cc1", "hERG current change (%, negative = inhibition) at 10uM": -5.67}
{"molecule": "Cc1cc(C)n(C(=O)c2ccc(C)o2)n1", "hERG current change (%, negative = inhibition) at 10uM": -0.589}
{"molecule": "O=S(=O)(c1cccs1)N1CN(Cc2ccco2)c2nc3ccccc3nc21", "hERG current change (%, negative = inhibition) at 10uM": -21.9}
{"molecule": "CN(C)S(=O)(=O)c1cccc(NC(=O)c2cc(=O)[nH]c(=O)[nH]2)c1", "hERG current change (%, negative = inhibition) at 10uM": 28.1}
{"molecule": "CNCC(O)Cn1c2c(c3ccccc31)CCCC2", "note": "(centres unmarked)", "hERG current change (%, negative = inhibition) at 10uM": -16.6}
